# According to the supplement of paper PMC11417369:
# ± gives the standard deviation of the averaged measurements. Some of the results follow.
# Test system: PfAP2-EXP AP2 domain (GST-tagged)
# Test: gcPBM binding intensity (ln(normalized median fluorescence intensity)); higher = stronger DNA binding
# Method in brief: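 GST-tagged P. falciparum DNA-binding domains produced in E. coli were incubated for 1 h on an Agilent 4 × 180k array of primer-extended double-stranded 36-bp intergenic genomic probes with negative controls. Binding intensity is the highest Masliner-normalised natural-log median intensity across replicate spots of either probe orientation, with bound protein detected by Alexa488 anti-GST antibody at 488 nm.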
row,Sequence,gcPBM binding intensity (ln)
1,AATATGTTTTGTTAGGTTGGTGTTGGTAGAATGTTT [CACACA_negctrl_site1563],8.62 ± 0.64
2,AAAAAAAAATCATATTGTACGTAAAAAAAAAAAAAA [XGTACX_site476],8.55 ± 0.52
3,ACAGGATTGGTTCAAACACACATATTATAGGACTAT [CACACA_site6455],8.55 ± 0.52
4,CGAAAAAATAAAAAAAAAATAAAATAAAATAAATAA [TGCATGCA_negctrl_site278],8.32 ± 0.47
5,ATAATCCTTAGACACACACACACACGAATAAATAAA [CACACA_site6364],8.87 ± 0.34
6,CAATATATTTGATTTACACACTTACAATGTATTTAA [CACACA_site5632],8.49 ± 0.44
7,AAAAAATTAACCGTAACACACACACCGATATATATA [CACACA_site9312],8.81 ± 0.42
8,ATTTAAATAATATTCACACACAAAATTAAATTTTAA [CACACA_site6246],8.31 ± 0.52
9,AAAAAAAAAAGAAACACACACATATAGATTTATAAC [CACACA_site6927],8.71 ± 0.5
10,AATCTAGGTATTTATACACACTAAAATAATATACGA [CACACA_site4515],8.62 ± 0.5
11,GCTCTAATTAATATTTGTACACACATATTTAACCTA [XGTACX_site6808],8.8 ± 0.3
12,TTTTTTTTTTTTTTTTGTACATAATTCCATATTTTT [XGTACX_site1789],8.21 ± 0.69
13,TGATCTTTACACATATTATATATATATAAAAAAAAA [XGTACX_negctrl_site360],8.49 ± 0.57
14,TGTTATATCAATAATATATAATAATACCCTTCTTTT [CACACA_negctrl_site1682],8.2 ± 0.36
15,TTATAACATATAAACATGTTTCATCTTACGTATTTT [GTGCAC_negctrl_site694],8.96 ± 0.3
16,ATAAGAATATATAGAGTGCGTTGAAGAATTATAATA,8.84 ± 0.36
17,ATATTTAATTTGTATGGTACAGTACGATCTTTCTTT [XGTACX_site5533],8.56 ± 0.55
18,CCCTCAACGAATTTGAGTACACATTTTAAATGATAT [XGTACX_site7763],8.58 ± 0.47
19,ATCGCAAGATTAATATAAGGAGAAACGTTTATATAT [GTGCAC_negctrl_site267],8.76 ± 0.5

row,Sequence,gcPBM binding intensity (ln)
1,AATAATATATTATATGCATGTGTATAATTTGATATA [TGCATGCA_site1058],8.8 ± 0.3
2,CAAAGGAAATGGTGTACACAATTTTTCCTTTTTCGT [CACACA_site4800],8.29 ± 0.37
3,TTTGGTTATTTGACCTGTACACATTTAATTATTTTT [XGTACX_site5170],8.6 ± 0.45
4,ACAAGTATTCCTTTTGCACACCTTTCTGCACCTTAT [CACACA_site3873],9.35 ± 0.26
5,ATTATGAATTTAAGACGTACAAAAAATTTTTATTCA [XGTACX_site5682],8.59 ± 0.47
6,AAATACTTATTCGTGGTGCAACAATTTTAAAAATTA,8.66 ± 0.25
7,ATTAAAATAATACGTACACACATGTATAATACATAT [CACACA_site1005],8.81 ± 0.29
8,TATTACATAATATATGTACACACGCAAATACTTATA [CACACA_site7994],8.61 ± 0.37
9,CAAAAAAAGTTATACACACACACACGGATATAAATA [CACACA_site6619],8.81 ± 0.61
10,TAACAACGATACAATTGTACAAATTATATATATATA [XGTACX_site4687],9.89 ± 0.24
11,AGCAAGACGGGGTGCACACAAACTAATATGCCGAAT [CACACA_site159],9.26 ± 0.11
12,TATAACACACAATGATGTACATTACATTATTTTTTA [XGTACX_site2076],8.44 ± 0.37
13,AATATAATATACATATGTACATATATATATATATAT [XGTACX_site8218],10 ± 0.32
14,TTTTCTATATAACAACGTACATTTATTATATTATAA [XGTACX_site6148],8.44 ± 0.28
15,ATATATATATATATGTGTACATATTTTTTTGAAGTG [XGTACX_site248],10.1 ± 0.29
16,TAATATAAATGAAAGGTGCTTTTGCTTTCTTTTTTT,8.29 ± 0.15
17,AAAAAAAAAAAAAATACACACACACCGATATATATA [CACACA_site8142],8.65 ± 0.51
18,ATACATATAATAATATGTACATATAATTATATATAT [XGTACX_site913],8.51 ± 0.22
19,TAATATATTTTTAACATGCACTGTATTTTAATATAT,9.36 ± 0.29

row,Sequence,gcPBM binding intensity (ln)
1,TATAAAACAAATATATGTACATATCATAGTATAATA [XGTACX_site2965],8.53 ± 0.34
2,TAATTAAAGTTATCTACACACCTTTATAGATATATA [CACACA_site7778],8.29 ± 0.4
3,TCTGGATTGGATTACAAGAAAATAAAATATAAAATA [CACACA_negctrl_site122],8.38 ± 0.4
4,TATACAAATATATATGCACACACATATATGTATATG [CACACA_site9007],8.475 ± 0.035
5,TATATATATATATATTGTACAAAGATTAATATATAA [XGTACX_site8433],10 ± 0.2
6,TATTTTAATAAGAATAAATGAAATGAAATGAAATAT [CACACA_negctrl_site823],8.66 ± 0.41
7,ACTTAATTTTTTTATTGTACATGTAAATGAGGGAAA [XGTACX_site6305],8.79 ± 0.45
8,ACATCCTATAAATAGAGTACGTAAATTATAATACAC [XGTACX_site5338],8.71 ± 0.2
9,ATGAATTTTTCTCTACAAAAGGATATAATAAAAATA [XGTACX_negctrl_site461],8.31 ± 0.23
10,TTTTCTAATTAATATTGTACATAAATGTATATATAT [XGTACX_site4749],8.37 ± 0.15
11,TAGTGTGCCAAATTAGCACACACATATATACATGAA [CACACA_site8910],8.56 ± 0.37
12,ATCAAAGATAAATTTACACACATATAAATATAAATA [CACACA_site7409],8.44 ± 0.56
13,CTTCTGGACAGGAATGCACACATTTTTTTTTCTTTT [CACACA_site1807],8.64 ± 0.4
14,GTTTTTATCATATCATGTACGTATTTTATTTTTTTT [XGTACX_site8643],9.03 ± 0.32
15,TAAAATAAAAAGTTTACACACATATATAACTTTAAT [CACACA_site6456],8.26 ± 0.4
16,CCCCTATAAATAGGGTGTACTAATAAATATTTTTAA [XGTACX_site1244],9.13 ± 0.35
17,ACGGGCGACACATAAGTGCGCAAAAAAAAAAAAATA [GTGCAC_site9688],8.78 ± 0.49
18,GAAAAGTATAAAAAACGTACAAGTTTTATTTTCACA [XGTACX_site4604],8.34 ± 0.35
19,TTTTATAAAACATGTAGTACATGAAAAAAAAAATTT [XGTACX_site1626],8.73 ± 0.47
